The source gives no read counts; variants with many changes may rest on few reads.

The labels stand for the following.
B1: OR4K15 (parent)
chain: GUUAACGGUCAUAGGCCAUGGAAACUAGGAGCACCAUUUCGCUGCCAGUGAAGAAAUGAACAAAGAAAAUCUGGGCCAGGCAGGCAUCAAAAGAAAUAGUCUUGCGCUCAACCAGAAAGUCUGUAAUCAUUUUAAGGGUA

The variants in this data set derive from B1. The data set is described as follows: self-cleavage, relative activity (ratio to wild type); higher = more cleavage; in vitro, sequencing; the parent is a self-cleaving ribozyme.
On to GUUAACGGUCAUGGGCCAUGGAAACUAGGAGCACCAUUUCGCUGCCAGUGAAGAAAUGAACAGGGAAAAUCUGGGCCAGGCAGGCAUCAAAAGAAAUAGUCUUGCGCUCAACCAGGAAGUCUGUAAUCAUUUUAAGGGUA, for which the self-cleavage came to 1.02.
GUUAACGGUCAUGGGCCAUGGAAACUAGGAGCACCAUUUCGCUGCCAGUGAAGAAAUGAACGAAGAAAAUCUGGGCCAGGCAGGCAUCAAAAGAAAUAGUCUUGCGCUCAACCGGAAAGUCUGUAAUCAUUUUGAGGGUA: the self-cleavage was determined as 0.18.
Take GUUAACGGUCAUGGGCCAUGGAAACUAGGAGCACCAUUUCGCUGCCAGUGAAGAAAUGAACAAAGAAAAUCUGGGCCAGGCGGGCAUCAAAAGAAAUAGUCUUGCGCCCAACCAGAAGGUCUGUAACCACUUUAAGGGUA: the self-cleavage amounted to 0.
GUUAACGGUCAUGGGCCAUGGAAACUAGGAGCACCAUUUCGCUGCCAGUGUAGAAAUGAACAAAGAAAAUCUGGGCCAGGCAGGCAUCAAAAGAAAUAGUCUUGCGCUCAACCAGAAAGUCAGUAAUCAUUUUAAGGGUA: the self-cleavage was found to be 1.58.
Then GUUAACGGUCAUGGGCCAUGGAAACUAGGAGCACCAUUUCGCUGCCAGUGAAGAAAUGAACAAAGAAAAUCUGGGCCAGGCAGGCGUCAAAAGAAAUAGUCUUGCGCUCAACCAGAAAGUCUGUAAUCGUUUUAAGGGCA, with 1.04; and GUUAACGGUCAUGGGCCAUGGAAACUAGGAGCACCAUUUCGCUGCCAGUGUAGAAAUGAACAAAGAAAAUCUGGGCCAGGCAGGCACCAAAAGAAAUAGUCUUGCGCUCAACCAGAAAGUCUGUAAUCAUAUUAAGGGUA, with 0.71.
For GUUAACGGUCAUGGGCCAUGGAAACUAGGAGCACCAUUUCGCUGCCAGUGAAGAAAUGAGCAAAGAAAAUCUGGGCCAGGCAGGCAUCAAAGGAAAUAGUCUUGCGCUCAACCAGAAAGUCUGUAAUCAUUUUAAGGGUA, the self-cleavage was 0.
GUUAACGGUCAUGGGCCAUGGAAACUAGGAGCACCAUUUCGCUGCCAGUGAAGAAAUGGACAAAGAAAAUCUGGGCCAGGCAGGCAUCAAAAGAAAUAGUCUUGCGCUCAACCAGGAAGUCUGUAAUCAUUUCAAGGGUA: the self-cleavage came out at 0.42.
For the variant GUUAACGGUCAUGGGCCAUGGAAACUAGGAGCACCAUUUCGCUGCCAGUGAAGAAAUGAACGAAGAAAAUCUGGGCCAGGCAGGCAUCAAAGGAAAUAGUCUUGCGCUCAACCAGAAAGUCUGUAAUCAUUUUAGGGGUA, the self-cleavage was 0.79.
On to GUUAACGGUCAUGGGCCAUGGAAACUAGGAGCACCAUUUCGCUGCCAGUGAAGAAAUGAACGAAGAAAAUCUGGGCUAGGCAGGCAUCAAAAGAAAUAGUCUUGCGCUCAACCAGAAAGUCUGUAAUCAUUUUAAGGGUA, for which the self-cleavage amounted to 0.9.
On to GUUAACGGUCAUGGGCCAUGGAAACUAGGAGCACCAUUUCGCUGCCAGUGAGGAAAUGAACACGGAAAAUCUGGGCCAGGCAGGCAUCAAAAGAAGUAGUCUUGCGCUCAACCAGAAAGUCUGUAAUCACUUUAAGGGUA, for which the self-cleavage turned out to be 1.15.
For the variant GUUAACGGUCAUGGGCCAUGGAAACUAGGAGCACCAUUUCGCUGCCAGUGAAGAACUGAACAAAGAAAGUCUGGGCCAGGCAGGCAUCAAAAGAAAUAGUCUUGCGCUCAACCAGAAAGUCUGUAAUCAUUCUAAGGGUA, the self-cleavage was determined as 0.46.
For GUUAACGGUCAUGGGCCAUGGAAACUAGGAGCACCAUUUCGCUGCCAGUGAAGAAAUGAACAGAGAAAAUCUGGGCCAGGCAGGCAUCAAAAGAAAUAGUCUUGCGCUCAACCAGAAAGUCUAUAAUCAUUUUAAGGGUA, the self-cleavage came out at 0.66.
To GUUAACGGUCAUGGGCCAUGGAAACUAGGAGCACCAUUUCGCUGCCAGUGAAGAAAUGAACGAAGAAAAUCUGGGCCAGGCAGGCAUCAAAAGUAAUAGUCCUGCGCUCAACCAGAAAGUCUGUAACCAUUUUAAGGGUA belongs 1.32; to GUUAACGGUCAUGGGCCAUGGAAACUAGGAGCACCAUUUCGCUGCCAGUGAGGAAAUGAACAAAGAAAAUCUGGGCCAGGCAGGCAUCAAAAGAAAUAGUCUUGCGCUCAACCAGAAAGUCUGUAAUCGUUUUAAGGGUA, 1.54.
Take GUUAACGGUCAUGGGCCAUGGAAACUAGGAGCACCAUUUCGCUGCCAGUGAAGAAAUGAACAAAGAAAGUCUGGGCCAGGCAGGCAUCAAAAGAAAUAGUCUUGCGCUCAACCAGAAAGUCUGUAAUCUUUUUAAGGGUA: the self-cleavage was found to be 1.36.
Turning to GUUAACGGUCAUGGGCCAUGGAAACUAGGAGCACCAUUUCGCUGCCAGUGAAGAAGUGAACAAAGAAAAUCUGGGCCCGGCAGGCAUCAAAAGAAAUAGUCUUGCGCUCAACCAGAAAGCCUGUAAUCAUUUUAAGGGUA, the self-cleavage came to 0.44.
GUUAACGGUCAUGGGCCAUGGAAACUAGGAGCACCAUUUCGCUGCCAGUGAAGAGAUGAACAAAGAAAAUCUGGGCCAGGCAGGCAUCAAAAGAAAUAGUCAUGCGCUCAACCAGAAAGUCUGUAAUCAUUUUAAGGGUA: the self-cleavage stood at 0.44.
To GUUAACGGUCAUGGGCCAUGGAAACUAGGAGCACCAUUUCGCUGCCAGUGAGGAAAUGAACAAAGAAAAUCUGGGCCAGGCAGGCAUCAAAAGAAAUAGUCUGGCGCUCAACCAGAAAGUCUGUAAUCAUUUUAAGGGUA belongs 0.17.
For GUUAACGGUCAUGGGCCAUGGAAACUAGGAGCACCAUUUCGCUGCCAGUGAAGAGAUGAACAAAGAAAAUCUGGGCCAGGCAGGCAUUAAAGGAAAUAGUCUUGCGCUCAACCAGAAAGUCUGUAAUCAUUUUAAGGGUA, the self-cleavage was 0.61.
As for GUUAACGGUCAUGGGCCAUGGAAACUAGGAGCACCAUUUCGCUGCCAGUGAAGAAAUGAACAAAGAAGAUCUGGGCCGGGCAGGCAUCAAAAGAAAUAGUCUUGCGCUCAACCAGAAAGUCUGUAGUCAUUUUAAGGGUA, the self-cleavage was determined as 0.25.

Source of the values: the RNAGym collection of RNA variant scans (doi:10.7554/elife.90254).
